The record followed here is PubChem BioAssay AID1508623 (National Center for Advancing Translational Sciences (NCATS), 2021).

Screen size: about 48,000 compounds; about 450 (0.94%) were called active. Inconclusive results (about 19%) are left out. The call rests on the fitted dose curve; in most records, active means well fitted inhibition curve with a large enough effect; inconclusive means small, poorly fitted or top-dose-only effect; inactive means no such curve, though single readings can be large or run the other way. This is one part of the list.

The experiment is described as follows: Primary qHTS for Identification of Small Molecule Inhibitors of Huntingtin Promoter Activity. Further: nearly all actives have a fitted effect of over 50% in size. As to conditions: HEK293 HTT promoter firefly luciferase reporter (activity 0% = vehicle and -100% = no light), 24 h; series mostly up to 57.5 µM; activity change, negative = inhibition: at the top concentration. The procedure, abridged: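 Firefly luciferase readout (Dual-Glo, 10 min RT) after 24 h, 37 °C compound exposure (final up to 57.5 uM) of HEK293 reporter cells cultured 24 h beforehand; PTC124 at 50 uM final as control inhibitor; activity scaled vehicle 0%, zero RLU -100%.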
On the technique in general: In qHTS, concentration-response curves come from the screen itself.
As to `Cc1ccc(NC(=O)CN2C(=O)CCn3nc(-c4cccn4C)cc32)cc1`, the “activity change, negative = inhibition” value was inactive: 11.9%.
On to `COCCCNc1nc2c(S(=O)(=O)c3ccc(C)c(C)c3)nnn2c2ccc(Cl)cc12`, for which the “activity change, negative = inhibition” value was inactive: -5.48%.
As for `Cc1ccc2oc(-c3cc(NC(=O)c4ccco4)ccc3Cl)nc2c1`, the figure is inactive: -4.71%.
To `CCOC(=O)c1ccc(N2C(=O)c3n[nH]c(-c4ccco4)c3C2c2ccc(O)c(OC)c2)cc1` (configuration not stated) belongs inactive: -35.1%.
To `CCN(CC)CCNC(=O)c1nn(C)c2c1CS(=O)(=O)c1ccccc1-2` belongs inactive: -4.12%; to `CCC(=O)N1c2ccccc2CC1C(=O)NCCc1ccc(C)cc1` (configuration not stated), inactive: 0%; to `Cc1ccc(CNC(=O)c2nn(C)c3c2CS(=O)(=O)c2ccccc2-3)cc1`, inactive: -24.3%.
As for `Cc1cn(C)c(CC(=O)NCc2ccccc2Cl)c1C(=O)O`, the “activity change, negative = inhibition” value is inactive: -5.23%.
Take `O=C(CSCc1nc2cccnc2n1C1CCCCC1)NCc1cccc(Cl)c1`: the “activity change, negative = inhibition” value was inactive: -26.2%.
To `COc1ccc(-n2nc(C(=O)N3CCN(c4cccc(C)c4C)CC3)c3c4ccccc4n(C)c3c2=O)cc1` belongs inactive: -6.03%; to `CCC(C)OC(=O)/C(C#N)=C\c1ccc(-c2ccccc2Cl)o1` (configuration not stated), inactive: 18.1%.
As for `CCOc1ccc(N(CC(=O)NCc2ccc(C)cc2)S(=O)(=O)c2c(C)noc2C)cc1`, the figure is inactive: -1.81%.
As for `Cc1cccc(NC(=O)Cn2c(=O)nc(-c3ccccc3)c3ccccc32)c1C`, the “activity change, negative = inhibition” value was inactive: -15%.
As for `COc1ccc(C)cc1NC(=O)C1CCCN(S(=O)(=O)c2ccc3[nH]c(=O)ccc3c2)C1` (configuration not stated), the figure is inactive: -23.6%.
To `COc1cc(NC(=O)CN2C(=O)CN(C)C(=O)c3ccccc32)cc(OC)c1OC` belongs inactive: 7.82%; to `CCOC(=O)c1c(C)[nH]c(C)c1S(=O)(=O)N1CCC(C(=O)Nc2ccc(C)cn2)CC1`, inactive: -16.5%; to `CCn1c2ccccc2c2cc(NC(=O)COc3cccc(C)c3)ccc21`, inactive: -3.65%.
As for `CCOc1cc2[nH]c(=O)n(CCCC(=O)N3CCN(c4ccc(OC)cc4)CC3)c(=O)c2cc1OCC`, the “activity change, negative = inhibition” value is inactive: -22.6%.
To `Cc1ccc(F)c(NC(=O)Nc2ccc3snnc3c2)c1` belongs inactive: 9.72%; to `CCOc1ccc(CCNC(=O)c2cn(CC)c3ccc(S(=O)(=O)N4CCCCCC4)cc3c2=O)cc1OCC`, inactive: 4.61%; to `O=C(NCCN1CCN(c2cccc(Cl)c2)CC1)C1COc2ccccc2C1` (configuration not stated), inactive: -9.28%.
In the case of `Cc1cccc(CNC(=O)Cn2ccc3cc(S(=O)(=O)N4CCCC4)ccc32)c1`, the “activity change, negative = inhibition” value was inactive: -5.92%.
As for `Cc1ccc(S(=O)(=O)N(CCc2ccccc2)CC(=O)Nc2cc(C)ccc2C)cc1`, the figure is inactive: -38.7%; as for `CN(C)S(=O)(=O)c1ccc(C(=O)NC2CC(=O)N(c3ccc4c(c3)OCCO4)C2)cc1` (configuration not stated), inactive: -14.4%; as for `COc1cc(C2C(C(=O)Nc3ccc(C)cc3C)=C(C)Nc3nc4ccccc4n32)cc(OC)c1OC` (configuration not stated), inactive: -2.74%.
To `Cn1cc(C(=O)NCc2ccccc2)c(=O)c2cc(S(=O)(=O)N3CCOCC3)ccc21` belongs inactive: -19.2% [at 11.5 µM]; to `Cc1cccc(NC(=O)Cn2nnc(C(=O)Nc3ccccc3Br)c2N)c1C`, inactive: -3.4%.
As to `CCOc1ccccc1NC(=O)c1nc2nc(C)cc(C(F)F)n2n1`, the “activity change, negative = inhibition” value is inactive: 1.58%.
For the molecule `O=C(NC1CC(=O)N(c2ccc(Cl)cc2)C1)c1ccc2c(c1)OCO2` (configuration not stated), the “activity change, negative = inhibition” value is inactive: 10.8%.
As for `COc1cccc(N2CCN(C(=O)C3CCN(S(=O)(=O)c4c(C)noc4C)CC3)CC2)c1`, the figure is inactive: -1.74%; as for `CSc1ccc(CCNC(=O)CN2C(=O)c3cccnc3Oc3ccc(C)cc32)cc1`, inactive: -2.84%.
For `CCCN1CCN(CCCNC(=O)Cn2nc(CC)n3c(cc4occc43)c2=O)CC1`, the “activity change, negative = inhibition” value was inactive: -15.4%.
Take `Cc1ccc2c(=O)cc(C(=O)N(Cc3ccc(N(C)C)cc3)C3CCS(=O)(=O)C3)oc2c1` (configuration not stated): the “activity change, negative = inhibition” value is inactive: 24.2%.
As for `CCc1cccc(C)c1NC(=O)CSc1nc2ccccc2nc1N1CCOCC1`, the figure is inactive: -28.4%.
To `CC1(C)O[C@H]2[C@@H](O1)[C@@H](C(=O)Nc1ccc(F)c(F)c1)O[C@@H]1OC(C)(C)O[C@@H]12` belongs inactive: -7.19%.
To `Cc1cc(F)ccc1NS(=O)(=O)c1c(C)nc2scc(C)n2c1=O` belongs inactive: -24.3%; to `CCOc1ccc(CCNC(=O)Cn2nc(CC)n3c(cc4sccc43)c2=O)cc1`, inactive: -6.45%; to `Cc1nn2c(C)c(C(=O)NCC(C)c3ccccc3)cnc2c1-c1ccccc1` (configuration not stated), inactive: -10.5%.
Consider `O=C(Nc1c2c(nn1-c1ccc(Cl)cc1)CS(=O)(=O)C2)c1ccccc1F`, for which the “activity change, negative = inhibition” value was inactive: -19.1%.
To `COc1ccc(C2NC(=O)N(C)C3=C2C(=O)N(c2ccc(F)cc2)C3)cc1` (configuration not stated) belongs inactive: -19.8%; to `Cc1cccc(NC(=O)CSc2nccn2-c2cccc(Cl)c2)c1C`, inactive: -20.7%.
As for `CCC(C(=O)NCc1ccccc1Cl)n1nc(C)c2sc3ccccc3c2c1=O` (configuration not stated), the figure is inactive: -2.28%; as for `CSc1ccc(/C=C2/C(C)=C(CC(=O)O)c3cc(F)ccc32)cc1`, inactive: -1.57%.
For `Cc1ccc(NC(=O)c2sc(-n3nc(C)c(Cc4ccc5c(c4)OCO5)c3C)nc2C)cc1C`, the “activity change, negative = inhibition” value was inactive: -8.76%.
To `CCOc1cc(C2c3c(-c4ccccc4O)n[nH]c3C(=O)N2Cc2cccnc2)ccc1O` (configuration not stated) belongs inactive: -10.8%.
As for `O=C(CCCn1c(=O)c2sccc2n(Cc2cccc(Cl)c2)c1=O)NCc1ccc2c(c1)OCO2`, the “activity change, negative = inhibition” value is inactive: -5.19%.
To `CCOC(=O)CN1C(=O)c2cccnc2Oc2ccccc21` belongs inactive: -14.6%.
